Among all 310,000 compounds or so, about 14,000 (4.5%) showed an effect of 50% or more. Effects have a minus sign here. The list shows a part of the results.
Target: human ether-à-go-go-related gene (hERG) potassium channel (human, UniProt Q12809)
Test: primary screen, population patch clamp on CHO cells stably expressing hERG
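Further: peak tail current of the secondary pulse compared with the same well before compound.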

Chain of human ether-à-go-go-related gene (hERG) potassium channel (Q12809 whole entry, looked up): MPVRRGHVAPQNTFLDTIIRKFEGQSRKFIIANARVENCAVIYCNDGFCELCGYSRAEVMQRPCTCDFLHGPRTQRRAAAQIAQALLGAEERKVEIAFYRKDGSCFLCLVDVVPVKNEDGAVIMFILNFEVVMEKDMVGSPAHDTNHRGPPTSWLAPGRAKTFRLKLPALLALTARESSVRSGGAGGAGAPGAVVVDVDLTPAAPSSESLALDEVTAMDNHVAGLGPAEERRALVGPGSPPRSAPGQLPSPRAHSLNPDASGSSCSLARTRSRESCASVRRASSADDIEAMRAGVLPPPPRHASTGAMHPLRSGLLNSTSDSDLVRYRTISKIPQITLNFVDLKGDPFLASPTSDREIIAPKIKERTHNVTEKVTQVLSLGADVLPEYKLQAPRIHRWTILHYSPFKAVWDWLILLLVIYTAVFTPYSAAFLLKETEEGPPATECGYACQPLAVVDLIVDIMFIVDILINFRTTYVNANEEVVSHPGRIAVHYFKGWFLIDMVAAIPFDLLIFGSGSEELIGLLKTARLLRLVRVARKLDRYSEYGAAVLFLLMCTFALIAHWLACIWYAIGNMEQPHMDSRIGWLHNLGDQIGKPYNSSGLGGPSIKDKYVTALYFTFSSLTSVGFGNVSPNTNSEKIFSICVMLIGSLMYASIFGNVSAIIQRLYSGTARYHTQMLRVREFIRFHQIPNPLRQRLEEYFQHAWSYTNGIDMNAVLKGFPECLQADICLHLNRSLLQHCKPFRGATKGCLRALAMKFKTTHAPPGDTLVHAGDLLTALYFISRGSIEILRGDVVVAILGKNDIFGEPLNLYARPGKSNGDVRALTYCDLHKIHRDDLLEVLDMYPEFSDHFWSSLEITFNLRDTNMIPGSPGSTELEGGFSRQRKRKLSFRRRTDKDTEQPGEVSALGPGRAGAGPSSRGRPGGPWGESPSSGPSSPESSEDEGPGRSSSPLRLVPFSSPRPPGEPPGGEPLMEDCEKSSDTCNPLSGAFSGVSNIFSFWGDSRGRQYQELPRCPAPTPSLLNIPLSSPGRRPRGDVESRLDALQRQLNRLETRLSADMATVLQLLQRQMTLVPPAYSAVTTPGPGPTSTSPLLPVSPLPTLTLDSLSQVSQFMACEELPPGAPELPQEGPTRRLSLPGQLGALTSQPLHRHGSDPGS

How did the “hERG current change (%, negative = inhibition) at 10uM” value turn out when `C=CCNC(=O)C1(S(=O)(=O)c2ccccc2)CC=CC1` was run?
Its value is 2.62%.

`COCCn1nnnc1SCC(=O)NCc1ccc2c(c1)OCO2` was tested. Which “hERG current change (%, negative = inhibition) at 10uM” value did it give?
Its value is 27.9%.

Which “hERG current change (%, negative = inhibition) at 10uM” value does the source give for `COCCNc1c2c(c(C#N)c3nc4ccccc4n13)CCCC2` here?
The value was -44.1%.

For `Cc1ccc(C(c2nnnn2C2CCCC2)N2CCN(c3nc4ccccc4s3)CC2)cc1` (stereo not drawn), which “hERG current change (%, negative = inhibition) at 10uM” value is on record?
The value was 2.13%.

For `CC(CC(=O)Nc1ccc(C(N)=O)cc1)c1ccccc1` (stereo not drawn), which “hERG current change (%, negative = inhibition) at 10uM” value is on record?
The value was 29.6%.

Which “hERG current change (%, negative = inhibition) at 10uM” value does the source give for `COc1ccc(N2CCN(C(=O)Cn3cnc4sc(C)c(S(=O)(=O)N5CCOCC5)c4c3=O)CC2)cc1` here?
Its value is -20.7%.

With `CCOC(=O)c1ccc(NC(=S)NCC(O)c2ccccc2)cc1` (stereo not drawn) as the compound, how does the “hERG current change (%, negative = inhibition) at 10uM” value read?
The value was -13.3%.

For `CCN1CNC(=S)N(C(C)c2ccccc2)C1` (stereo not drawn), which “hERG current change (%, negative = inhibition) at 10uM” value is on record?
Its value is -2.28%.

How did the “hERG current change (%, negative = inhibition) at 10uM” value turn out when `CC1CCCCN1CCCNC(=O)C1CCCN(c2ncnc3c2nc2n3CCCCC2)C1` (stereo not drawn) was run?
The value was 6.02%.

With `O=C1C=C2C=C[C@@H]3CC2(O1)[C@H]1CCCCN31` as the compound, how does the “hERG current change (%, negative = inhibition) at 10uM” value read?
Its value is -1.2%.

`COc1cc(NC(=O)C2C3C=CC(C3)C2C(=O)O)c(OC)cc1Cl` (stereo not drawn) was tested. Which “hERG current change (%, negative = inhibition) at 10uM” value did it give?
Its value is 6.22%.

For `COc1ccc(NC(=O)CCc2nc(-c3ccc(C)cc3)no2)cc1Cl`, which “hERG current change (%, negative = inhibition) at 10uM” value is on record?
Its value is -5.02%.

`COc1ccc([C@H]2CC(=O)C=C(c3ccc(CNC(=O)OC(C)(C)C)cc3)C2)cc1` was tested. Which “hERG current change (%, negative = inhibition) at 10uM” value did it give?
The value was -3.23%.

With `COC(=O)c1ccccc1-n1c(C)nc(=O)c(-c2ccccc2)c1C` as the compound, how does the “hERG current change (%, negative = inhibition) at 10uM” value read?
Its value is 10.8%.

`Cc1ccc(C)c(-n2ccnc2SCC(=O)Nc2cccc(S(=O)(=O)NC3=NCCC3)c2)c1` was tested. Which “hERG current change (%, negative = inhibition) at 10uM” value did it give?
Its value is -24.2%.

With `CCOc1ccc(C(=O)Nc2ccc(N3CCN(C)CC3)cc2)cc1Br` as the compound, how does the “hERG current change (%, negative = inhibition) at 10uM” value read?
Its value is -15.1%.

Which “hERG current change (%, negative = inhibition) at 10uM” value does the source give for `CC(C)CC(=O)NC(=S)Nc1ccc(S(=O)(=O)N2CCN(C)CC2)cc1` here?
Its value is -2.63%.

Which “hERG current change (%, negative = inhibition) at 10uM” value does the source give for `CCOC(=O)c1oc2ccccc2c1COC(=O)CNC(=O)c1ccccc1OC` here?
The value was -26%.

`Cc1nc(=O)c(-c2ccccc2)c(C)n1-c1ccc(O)cc1` was tested. Which “hERG current change (%, negative = inhibition) at 10uM” value did it give?
Its value is 9.6%.

Which “hERG current change (%, negative = inhibition) at 10uM” value does the source give for `Cc1sc(NC(=O)CN(Cc2ccc(F)cc2)C(=O)C(C)(C)C)c(C(N)=O)c1C` here?
The value was -8.53%.

How did the “hERG current change (%, negative = inhibition) at 10uM” value turn out when `CCOC(=O)CSc1ccc2nnc(CCNS(=O)(=O)c3ccc(C)cc3)n2n1` was run?
The value was 4.23%.

Which “hERG current change (%, negative = inhibition) at 10uM” value does the source give for `CCN1CN=C(NS(=O)(=O)c2ccc(C)cc2)NC1` here?
Its value is 3.6%.

With `CCOC(=O)c1cnc2c(ccc3ccccc32)c1NCCN(C)C` as the compound, how does the “hERG current change (%, negative = inhibition) at 10uM” value read?
Its value is -7.47%.

`CC(C)Cc1cc(C(=O)N2CCCC(C(=O)c3cc(F)ccc3F)C2)n(C)n1` (stereo not drawn) was tested. Which “hERG current change (%, negative = inhibition) at 10uM” value did it give?
Its value is -15.7%.

Source: paper PMC4336329 (PLoS ONE, 2015)
